Measurements taken from the supplement of paper PMC4604168 (melanoma cell lines).
The other results are listed elsewhere or left out. Many values rest on one well or one pass, so single values are uncertain.

Columns and labels:
Experiment in all cases: cell count relative to DMSO control; melanoma cells; higher = more viable cells
Details in all cases: library dose: low library concentration; 72 h
WM115 = system: WM115
WM1716 = system: WM1716
WM1745 = system: WM1745
WM3526 = system: WM3526
WM3619 = system: WM3619
WM451Lu = system: WM451Lu
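Note: cell number obtained by counting DAPI-stained nuclei in high-throughput microscope images with image analysis software, screen run in 1,536-well plates.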

Structure (SMILES)	cell count (WM115)	cell count (WM1716)	cell count (WM1745)	cell count (WM3526)	cell count (WM3619)	cell count (WM451Lu)
NC(=O)Nc1cc(-c2cccc(F)c2)sc1C(=O)N[C@H]1CCCNC1 + Cc1cc(N2CCOCC2)cc2[nH]c(-c3c(NC[C@@H](O)c4cccc(Cl)c4)cc[nH]c3=O)nc12 [BMS536924] (first compound 0.02 µM, partner dose 0.2 µM)	84.2%	76.1%	71.1%	59.8%	70.3%	78.9%
Cc1nc(Nc2ncc(C(=O)Nc3c(C)cccc3Cl)s2)cc(N2CCN(CCO)CC2)n1 [dasatanib] + COCC[n+]1c2c(n(Cc3cnccn3)c1C)C(=O)c1ccccc1C2=O [YM155] (first compound 0.004 µM, partner dose 0.0004 µM)	73.2%	69.7%	64%	81.3%	52.4%	50.6%
NC(=O)Nc1cc(-c2cccc(F)c2)sc1C(=O)N[C@H]1CCCNC1 + CN(C)S(=O)(=O)c1ccc2c(c1)/C(=C/c1cc3c([nH]1)CCCC3)C(=O)N2 [SU6656] (first compound 0.02 µM, partner dose 0.4 µM)	65.6%	87.2%	77.8%	83.9%	110%	96%
C=CCn1c(=O)c2cnc(Nc3ccc(N4CCN(C)CC4)cc3)nc2n1-c1cccc(C(C)(C)O)n1 + CC(C)CCN1c2nc(Nc3cc(F)c(O)c(F)c3)ncc2N(C)C(=O)C1C [BID1870] (first compound 0.02 µM, partner dose 0.2 µM)	90.9%	82%	80.4%	78.8%	85.1%	90.1%
CO[C@@H]1[C@H](N(C)C(=O)c2ccccc2)C[C@H]2O[C@]1(C)n1c3ccccc3c3c4c(c5c6ccccc6n2c5c31)C(=O)NC4 [Midostaurin] + CCc1ccc(CCOc2ccc(CC3SC(=O)NC3=O)cc2)nc1 [pioglitazone] (first compound 0.08 µM, partner dose 2 µM)	79.8%	77.2%	72%	99.7%	108%	89.6%
NC(=O)Nc1cc(-c2cccc(F)c2)sc1C(=O)N[C@H]1CCCNC1 + O=S(=O)(c1ccccc1)N(CC(F)(F)F)c1ccc(C(O)(C(F)(F)F)C(F)(F)F)cc1 [T0901317] (first compound 0.02 µM, partner dose 1.4 µM)	98.3%	77.6%	81.5%	74.8%	71.4%	104%
Cc1nc(Nc2ncc(C(=O)Nc3c(C)cccc3Cl)s2)cc(N2CCN(CCO)CC2)n1 [dasatanib] + CN(NC(=O)CC(=O)NN(C)C(=S)c1ccccc1)C(=S)c1ccccc1 [STA4783] (first compound 0.004 µM, partner dose 0.006 µM)	52.6%	59.4%	36.7%	86.1%	59.6%	67%
CO[C@@H]1[C@H](N(C)C(=O)c2ccccc2)C[C@H]2O[C@]1(C)n1c3ccccc3c3c4c(c5c6ccccc6n2c5c31)C(=O)NC4 [Midostaurin] + Cc1cc([N+](=O)[O-])ccc1NS(=O)(=O)c1cc(Cl)ccc1Cl [FH535] (first compound 0.08 µM, partner dose 1 µM)	77.7%	75.2%	75.8%	100%	148%	97.2%
NC(=O)Nc1cc(-c2cccc(F)c2)sc1C(=O)N[C@H]1CCCNC1 + O=c1cc(-c2cccc3c2Sc2ccccc2S3)oc(N2CCOCC2)c1 [KU55933] (first compound 0.02 µM, partner dose 1 µM)	96.1%	88%	104%	81.8%	43.6%	83.7%
Cc1nc(Nc2ncc(C(=O)Nc3c(C)cccc3Cl)s2)cc(N2CCN(CCO)CC2)n1 [dasatanib] + NC(=O)Nc1cc(-c2cccc(F)c2)sc1C(=O)N[C@H]1CCCNC1 [AZD7762] (first compound 0.004 µM, partner dose 0.02 µM)	71.1%	63.9%	74.5%	82.6%	108%	46.2%
CO[C@@H]1[C@H](N(C)C(=O)c2ccccc2)C[C@H]2O[C@]1(C)n1c3ccccc3c3c4c(c5c6ccccc6n2c5c31)C(=O)NC4 [Midostaurin] + N#Cc1c(O)c2c(-c3ccc(-c4ccccc4O)cc3)csc2[nH]c1=O [A769662] (first compound 0.08 µM, partner dose 2 µM)	89.3%	72.2%	88.4%	101%	105%	101%
C[C@]1(c2nc3c(C(N)=O)cccc3[nH]2)CCCN1 [Veliparib] + C[C@@H]1CCN(C(=O)CC#N)C[C@@H]1N(C)c1ncnc2[nH]ccc12 [CP690550] (first compound 1.4 µM, partner dose 1 µM)	87.6%	83%	72.4%	103%	86.5%	92%
C[C@]1(c2nc3c(C(N)=O)cccc3[nH]2)CCCN1 [Veliparib] + COc1cc2ncnc(Nc3ccc(Oc4ccccc4)cc3)c2cc1OC [SrcI1] (first compound 1.4 µM, partner dose 2 µM)	86.1%	101%	70.9%	76.5%	117%	117%
Cc1nc(Nc2ncc(C(=O)Nc3c(C)cccc3Cl)s2)cc(N2CCN(CCO)CC2)n1 [dasatanib] + Cn1cncc1[C@@](N)(c1ccc(Cl)cc1)c1ccc2c(c1)c(-c1cccc(Cl)c1)cc(=O)n2C [tipifarnib] (first compound 0.004 µM, partner dose 0.01 µM)	60.6%	56.4%	72.6%	75.3%	81.6%	59%
OCCn1cc(-c2cnc3nnn(Cc4ccc5ncccc5c4)c3n2)cn1 + Oc1nc(-c2ccc(C(F)(F)F)cc2)nc2c1CSCC2 [XAV939] (first compound 1 µM, partner dose 2 µM)	92.9%	65.1%	88.5%	119%	114%	107%
NC(=O)Nc1cc(-c2cccc(F)c2)sc1C(=O)N[C@H]1CCCNC1 + COc1cc2c(Oc3ccc4[nH]c(C)cc4c3F)ncnc2cc1OCCCN1CCCC1 [cediranib] (first compound 0.02 µM, partner dose 0.4 µM)	74.6%	100%	108%	89.7%	81.4%	110%
C[C@]1(c2nc3c(C(N)=O)cccc3[nH]2)CCCN1 [Veliparib] + CCN(CC)CCCCNc1ncc2cc(-c3cc(OC)cc(OC)c3)c(NC(=O)NC(C)(C)C)nc2n1 [PD173074] (first compound 1.4 µM, partner dose 0.1 µM)	76.4%	88.3%	86%	89.8%	98.9%	101%
NCC(=O)Nc1ccc(-n2nc(C(F)(F)F)cc2-c2ccc3c(ccc4ccccc43)c2)cc1 + COc1ccc2c(c1)CCC1C2CCC2(C)C(NCCCCCCN3C(=O)C=CC3=O)CCC12 [U73122] (first compound 1 µM, partner dose 0.4 µM)	88.2%	85.5%	94.1%	47.2%	109%	55.5%
CO[C@@H]1[C@H](N(C)C(=O)c2ccccc2)C[C@H]2O[C@]1(C)n1c3ccccc3c3c4c(c5c6ccccc6n2c5c31)C(=O)NC4 [Midostaurin] + Cc1cc(N2CCOCC2)cc2[nH]c(-c3c(NC[C@@H](O)c4cccc(Cl)c4)cc[nH]c3=O)nc12 [BMS536924] (first compound 0.08 µM, partner dose 0.2 µM)	86.8%	74.9%	79.3%	88.1%	98.6%	107%
C[C@]1(c2nc3c(C(N)=O)cccc3[nH]2)CCCN1 [Veliparib] + O=c1cc(-c2cccc3c2Sc2ccccc2S3)oc(N2CCOCC2)c1 [KU55933] (first compound 1.4 µM, partner dose 1 µM)	109%	109%	95.3%	78.8%	105%	102%
C[C@]1(c2nc3c(C(N)=O)cccc3[nH]2)CCCN1 [Veliparib] + O=C(Nc1ccccc1)c1cc([N+](=O)[O-])ccc1Cl [GW9662] (first compound 1.4 µM, partner dose 2 µM)	91.3%	77.1%	79.7%	89.3%	81.6%	111%
OCCn1cc(-c2cnc3nnn(Cc4ccc5ncccc5c4)c3n2)cn1 + COc1cc2c(Oc3ccc4[nH]c(C)cc4c3F)ncnc2cc1OCCCN1CCCC1 [cediranib] (first compound 1 µM, partner dose 0.4 µM)	104%	85.7%	85.1%	78.4%	97.3%	92.7%
Cc1nc(Nc2ncc(C(=O)Nc3c(C)cccc3Cl)s2)cc(N2CCN(CCO)CC2)n1 [dasatanib] + Cn1c(Nc2ccc(C(F)(F)F)cc2)nc2cc(Oc3ccnc(-c4ncc(C(F)(F)F)[nH]4)c3)ccc21 [CHIR265] (first compound 0.004 µM, partner dose 0.08 µM)	46.9%	68%	65.9%	64.6%	71.2%	52%
OCCn1cc(-c2cnc3nnn(Cc4ccc5ncccc5c4)c3n2)cn1 + CN(C)S(=O)(=O)c1ccc2c(c1)/C(=C/c1cc3c([nH]1)CCCC3)C(=O)N2 [SU6656] (first compound 1 µM, partner dose 0.4 µM)	71.4%	112%	112%	86.9%	110%	81.2%
C[C@]1(c2nc3c(C(N)=O)cccc3[nH]2)CCCN1 [Veliparib] + Cc1ccc(NC(=O)c2cccc(N(C)C)c2)cc1NC(=O)c1ccc(O)cc1 [ZM336372] (first compound 1.4 µM, partner dose 2 µM)	77.1%	94.3%	95.8%	128%	75%	81.8%
NC(=O)Nc1cc(-c2cccc(F)c2)sc1C(=O)N[C@H]1CCCNC1 + c1cc(-c2cnn3cc(-c4ccc(OCCN5CCCCC5)cc4)cnc23)ccn1 [Dorsomorphin] (first compound 0.02 µM, partner dose 0.4 µM)	93.8%	85%	86.9%	80%	57.1%	93.6%
